Measured values reported in PubChem BioAssay (NCATS).
Inconclusive means that the source gave no clear call. Such entries were picked first, then a sample of the others. No potency is given beside an inconclusive call; the fits are too rough. Active and inactive are the calls of the source. Calls follow the shape of the dose curve; as a rule, active = well fitted inhibition curve with a large enough effect; inconclusive = small, poorly fitted or top-dose-only effect; inactive = flat fitted curve, though single readings scatter.

biological target: Ubiquitin carboxyl-terminal hydrolase 1 (Homo sapiens) (UniProt O94782); assay: Inhibitors of USP1/UAF1: Pilot qHTS (AID 504865); settings: purified USP1/UAF1, Ub-rhodamine cleavage fluorescence; series mostly up to 114 µM; activity change, negative = inhibition: at the top concentration;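 also: rhodamine fluorescence freed from ubiquitin-rhodamine substrate followed over time; nearly all actives have a fitted effect of over 35% in size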; as to activity change, negative = inhibition: top concentration of the series differs between compounds
Sequence of UniProt O94782 (O94782 whole entry, looked up): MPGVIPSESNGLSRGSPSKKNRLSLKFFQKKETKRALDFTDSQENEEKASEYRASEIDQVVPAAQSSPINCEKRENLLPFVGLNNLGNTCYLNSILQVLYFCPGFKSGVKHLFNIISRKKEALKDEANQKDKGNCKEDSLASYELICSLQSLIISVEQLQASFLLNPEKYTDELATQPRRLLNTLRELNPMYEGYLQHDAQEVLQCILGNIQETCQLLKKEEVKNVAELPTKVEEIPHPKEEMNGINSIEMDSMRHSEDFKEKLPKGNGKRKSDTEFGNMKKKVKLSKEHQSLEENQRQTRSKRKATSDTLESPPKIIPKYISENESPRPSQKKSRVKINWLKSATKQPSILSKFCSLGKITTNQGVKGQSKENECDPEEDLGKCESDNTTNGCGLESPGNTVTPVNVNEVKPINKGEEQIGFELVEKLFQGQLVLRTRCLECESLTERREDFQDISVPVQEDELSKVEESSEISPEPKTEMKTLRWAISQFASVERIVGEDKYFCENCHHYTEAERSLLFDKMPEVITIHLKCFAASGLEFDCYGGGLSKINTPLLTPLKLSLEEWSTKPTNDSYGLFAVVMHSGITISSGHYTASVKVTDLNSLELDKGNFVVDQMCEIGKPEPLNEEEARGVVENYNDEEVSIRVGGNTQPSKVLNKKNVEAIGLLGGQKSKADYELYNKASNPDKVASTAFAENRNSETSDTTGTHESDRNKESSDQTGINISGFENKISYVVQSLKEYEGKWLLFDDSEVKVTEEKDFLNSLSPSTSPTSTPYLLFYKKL
Outline: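 In 50mM HEPES pH 7.8 containing 0.5mM EDTA, 1mM TCEP, 0.1 mg/ml BSA and 0.01% Tween-20, 1nM USP1/UAF1 is exposed to compound for 15 min, then Ub-Rho (150nM final) is added and fluorescence is read over time.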
% is scaled to controls: 0 for no effect and ±100 for the full control effect; potency is read from the fitted curve at half-maximal effect; tags tell the direction and shape of the fitted curve.

Row | Compound | Potency | activity change, negative = inhibition
1 | Clc1ccc2nc(-c3ccccc3)[nH]c2c1 | inconclusive [inhibitor, partial curve] | –
2 | C#CCCCCCCCCCCCc1ccco1 | inconclusive [inhibitor, partial curve, poor fit] | –
3 | CC(C)C1=CC2=CCC3[C@@](C)(CCC[C@@]3(C)C(=O)O)C2CC1 (stereo not given in full) | inconclusive [inhibitor, single point] | –
4 | Cc1cccc(-c2cc(=O)c3cc(Br)ccc3o2)c1 | inconclusive [inhibitor, partial curve, poor fit] | –
5 | O=C(/C=C(\O)c1ccccc1)c1ccccc1O | inconclusive [inhibitor, partial curve, poor fit] | –
6 | CCOc1cccc(C(=O)c2ccc(O)c(O)c2O)c1 | inconclusive [inhibitor, partial curve, poor fit] | –
7 | O=C(/C=C/c1ccc2c(c1)OCO2)c1cccs1 | inconclusive [inhibitor, partial curve] | –
8 | NC1(C(=O)O)C[C@H](C(=O)O)[C@H](C(=O)O)C1 (stereo not given in full) | inconclusive [inhibitor, partial curve, poor fit] | –
9 | O=c1cc(-c2ccc(O)cc2)oc2cc(OC3OC(CO)C(O)C(O)[C@H]3O[C@@H]3OC[C@@](O)(CO)C3O)cc(O)c12 (stereo not given in full) | inconclusive [inhibitor, partial curve, poor fit] | –
10 | COc1ccc2c(c1)OC/C(=C\c1ccc(OC)c(O)c1)C2=O | inconclusive [inhibitor, partial curve] | –
11 | CC(=O)OC1CC[C@]2(C)C(CC[C@@]3(C)C2C(=O)C=C2C4C(C)C(C)CC[C@@]4(C(=O)O)CCC23C)C1(C)C (stereo not given in full) | inconclusive [inhibitor, partial curve] | –
12 | Cc1cccc(-c2cc(=O)c3cc(C)ccc3o2)c1 | inconclusive [inhibitor, partial curve, poor fit] | –
13 | CC12CCCC(O)(C1)C1CC(C)(C)C1CC2 (stereo not given) | inconclusive [inhibitor, partial curve] | –
14 | O=C(c1ccc2c(c1)OCO2)N1CCCCC1 | – | inactive: -7.27%
15 | COc1cc(OC)c2c(OC)c(-c3ccc4c(c3)OCO4)c(=O)oc2c1 | inconclusive [inhibitor, full curve] | –
